Experimental data reported in PubChem BioAssay AID504845 (National Center for Advancing Translational Sciences (NCATS), 2011).
The campaign covered roughly 390,000 compounds. About 150 (0.038%) were called active. Inconclusive results, whose numbers are uncertain, are shown with a selection of clear calls. Calls follow the shape of the dose curve; as a rule, active = well fitted inhibition curve with a large enough effect; inconclusive = small, poorly fitted or top-dose-only effect; inactive = no such curve, though single readings can be large or run the other way. Potencies beside an inconclusive call are fits to weak or partial responses and may not hold up.
% is scaled to controls: 0 for no effect and ±100 for the full control effect; potency is read from the fitted curve at half-maximal effect; tags tell the direction and shape of the fitted curve.
Also: nearly all actives have a fitted effect of over 75% in size.

These compounds were tested against Regulator of G-protein signaling 4 (Homo sapiens) (UniProt P49798) (assay: Inhibitors of Regulator of G Protein Signaling (RGS) 4: qHTS). Settings: Transcreener GDP fluorescence polarization, RGS4-accelerated GTP hydrolysis; series mostly up to 114 µM; activity change, negative = inhibition: at the top concentration.
Sequence of UniProt P49798 (P49798 whole entry, looked up): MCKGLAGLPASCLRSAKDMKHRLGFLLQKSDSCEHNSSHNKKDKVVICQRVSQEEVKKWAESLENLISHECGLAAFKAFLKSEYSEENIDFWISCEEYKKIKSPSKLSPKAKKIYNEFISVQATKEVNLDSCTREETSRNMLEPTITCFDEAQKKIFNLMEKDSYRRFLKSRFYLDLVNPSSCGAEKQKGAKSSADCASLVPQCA
In short: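 MLSMR compounds (23 nl, pin-transferred) preincubated 10 min at room temperature with a 500nM (2x) first reagent, then RGS4 at 900nM (2x) plus Transcreener GDP mix added; fluorescence polarization (620/688 nm) read before and after 90 min at 30 °C.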
With `Cc1ccc(S/C=C\C(=O)c2ccccc2)cc1` the Potency was inconclusive: 89.1 µM [inhibitor, single point]. For `Cc1ccc(NC(=O)c2ccc3nsnc3c2)c(Cl)c1`, the “activity change, negative = inhibition” value was inactive: -0.199%. With `O=C(CSCc1ccccc1Br)NNC(=S)NCc1ccco1` the Potency was inconclusive: 89.1 µM [inhibitor, partial curve, poor fit]. For `Cn1c(N)c(Sc2ccccc2[N+](=O)[O-])c(=O)n(C)c1=O`, the “activity change, negative = inhibition” value was inactive: 2.17%. For `COc1cc(-c2nc(-c3ccc(NC(=O)c4ccc5c(c4)OCO5)cc3)no2)cc(OC)c1OC`, the Potency was inconclusive: 17.8 µM [inhibitor, full curve, poor fit]. In the case of `CC1CCCc2sc3nc(N4CCN(CCO)CC4)n4ncnc4c3c21` (configuration not stated), the “activity change, negative = inhibition” value is reported as inactive: 9.81%. For `COc1ccccc1NC(=O)C1(c2ccccc2)CCCC1`, the “activity change, negative = inhibition” value was inactive: 12.2%. `COc1cc(C(=O)CCN2CCC(c3ccccc3)C2)cc(OC)c1OC` (configuration not stated) was tested, and the Potency was inconclusive: 50.1 µM [inhibitor, partial curve, poor fit]. With `CCOCCCNC(=O)C(c1ccc(OC)cc1)N(Cc1ccc2c(c1)OCO2)C(=O)c1cnccn1` (configuration not stated) the Potency was inconclusive: 89.1 µM [inhibitor, single point]. `O=C(CN1C(=O)/C(=C2\SC(=S)N(CCS(=O)(=O)O)C2=O)c2ccccc21)Nc1cccc(Br)c1` was tested, and the Potency was inconclusive: 35.5 µM [inhibitor, partial curve, poor fit]. `Cn1cccc1/C=N/n1c(-c2ccc(Cl)cc2Cl)n[nH]c1=S` was tested, and the Potency was inconclusive: 44.7 µM [inhibitor, partial curve, poor fit]. With `Cc1cccc(-n2nc(C)c(C(=O)N3CCN(c4ccccc4)CC3)c2-n2cccc2)c1` the “activity change, negative = inhibition” value was inactive: 10.7%. With `CC(=O)C1=C(S(=O)(=O)c2ccc(C)cc2)CS(=O)(=O)C1` the Potency was inconclusive: 25.1 µM [inhibitor, full curve, poor fit]. For `c1ccc(CN2CCN(CCOCCOc3cccc4ccccc34)CC2)cc1`, the “activity change, negative = inhibition” value was inactive: 16.3%. With `Cc1cc(=O)n(-c2ccc(Cl)cc2)c(=O)[nH]1` the “activity change, negative = inhibition” value was inactive: 7.21%. In the case of `O=C(CCC(=O)N1CCOc2ccccc21)Nc1cc(F)ccc1F`, the Potency is reported as inconclusive: 31.6 µM [inhibitor, partial curve, poor fit]. `O=C(Nc1ccc(N2CCOCC2)cc1)c1ccc2c(c1)OCO2` was tested, and the Potency was inconclusive: 44.7 µM [inhibitor, partial curve, poor fit]. For `CCOC(=O)c1ccc(NC(=O)NCc2ccc(OC)cc2)cc1`, the Potency was inconclusive: 100 µM [inhibitor, single point]. In the case of `c1csc(-c2csc3ncnc(NCCCN4CCOCC4)c23)c1`, the “activity change, negative = inhibition” value is reported as inactive: -15.3%. With `CC(OC(=O)c1cc(Br)ccc1O)C(=O)Nc1ccc(S(=O)(=O)N2CCCC2)cc1` (configuration not stated) the “activity change, negative = inhibition” value was inactive: 11.2%. For `CCOC(=O)Cc1csc(NC(=O)NC2(C(F)(F)F)Oc3ccccc3O2)n1`, the Potency was inconclusive: 89.1 µM [inhibitor, partial curve, poor fit]. `COc1ccc(C(Nc2ccccn2)c2oc(CO)cc(=O)c2O)cc1` (configuration not stated) was tested, and the Potency was inconclusive: 39.8 µM [inhibitor, partial curve, poor fit]. With `COc1ccccc1NS(=O)(=O)c1cc(NC(=O)C(C)C)ccc1N1CCCCC1` the Potency was inconclusive: 44.7 µM [inhibitor, partial curve, poor fit]. With `COc1ccc(-c2oc3cccnc3c2/C=C/c2ccc(OC)c(OC)c2)cc1` the “activity change, negative = inhibition” value was inactive: -6.42%. For `S=c1[nH]nc(-c2cc(-c3ccccc3)n[nH]2)n1/N=C/c1cccs1`, the Potency was inconclusive: 79.4 µM [inhibitor, partial curve, poor fit]. `COc1ccc(C(=O)Nc2ccc3nc4c(c(Nc5ccc(OC)c(OC)c5)c3c2)CCCC4)c(OC)c1` was tested, and the Potency was inconclusive: 112 µM [inhibitor, partial curve, poor fit]. In the case of `COc1cc(C(=O)N/N=C/c2ccc3c(c2)c2ccccc2n3C)ccc1O`, the “activity change, negative = inhibition” value is reported as inactive: 19.9%. In the case of `O=C(Nc1ccc(Cl)cc1)Nc1ccccc1Sc1ncc([N+](=O)[O-])s1`, the Potency is reported as inconclusive: 100 µM [inhibitor, partial curve, poor fit]. `O=C(c1ccc(NS(=O)(=O)c2ccc(F)cc2)cc1)N1CCN(c2ccccc2O)CC1` was tested, and the “activity change, negative = inhibition” value was inactive: -14%. With `O=C(NCc1ccco1)C1Cc2ccccc2CN1S(=O)(=O)c1ccccc1F` (configuration not stated) the Potency was inconclusive: 50.1 µM [inhibitor, partial curve, poor fit]. `C=CC(=O)Nc1cccc(Oc2ccnc3[nH]ccc23)c1` was tested, and the Potency was inconclusive: 44.7 µM [inhibitor, partial curve, poor fit]. With `O=C(Nc1ccccc1Cl)c1cc(S(=O)(=O)N2CCCCC2)ccc1N1CCOCC1` the “activity change, negative = inhibition” value was inactive: 33.2%. In the case of `O=[N+]([O-])c1cccc(-c2ccc(C(=S)N3CCN(c4ccccc4)CC3)o2)c1`, the Potency is reported as inconclusive: 39.8 µM [inhibitor, partial curve, poor fit]. For `Cc1cccc(NC(=O)CN2CCN(C(=O)c3cccc(-n4cnnn4)c3)CC2)c1C`, the Potency was inconclusive: 89.1 µM [inhibitor, single point]. In the case of `C=CCN(C(=O)CCC(=O)Nc1cc(C)on1)C(C(=O)NC1CCCC1)c1ccc(CC)cc1` (configuration not stated), the Potency is reported as inconclusive: 44.7 µM [inhibitor, partial curve, poor fit]. In the case of `C(=C\c1ccco1)/c1ccc2ccccc2n1`, the Potency is reported as inconclusive: 17.8 µM [inhibitor, full curve, poor fit]. `Cc1cc(C)nc(Sc2nc(Nc3ccccc3)nc(Sc3nc(C)cc(C)n3)n2)n1` was tested, and the Potency was inconclusive: 79.4 µM [inhibitor, partial curve, poor fit]. With `COc1cccc(CNC(=O)c2cccnc2Sc2ccccc2)c1` the “activity change, negative = inhibition” value was inactive: 11%. For `Cc1c(Cl)cnn1CC(=O)NC1C(=O)N2C(C(=O)O)=C(CSc3nnnn3C)CSC12` (configuration not stated), the Potency was inconclusive: 100 µM [inhibitor, single point]. For `Cc1ccc(S(=O)(=O)N2CC=C(c3c(C)n(C)c4ccccc34)CC2)cc1`, the Potency was inconclusive: 79.4 µM [inhibitor, partial curve, poor fit]. In the case of `CC(C)NS(=O)(=O)c1ccc(OCC(=O)Nc2cccc(F)c2)cc1`, the “activity change, negative = inhibition” value is reported as inactive: 11%. For `NC(=O)N/N=C/c1sc(=O)n(-c2ccccc2)c1Cl`, the Potency was inconclusive: 79.4 µM [inhibitor, partial curve, poor fit].
